# Assay results: publication PMC12136788
# The list shows a part of the results.
# B1: 2160769_2160889_696_CDS_ENSG00000157933_ENST00000378536|human|control|control (ssRNA)
# RNA: GGGAGUUCUACAGUCCGACGAUCACACUUGCCGAAGCACUCGUGGUACACGCGGACGCUGCGCUCGCUGAGCUCCAGGCCCAGCGCCAGGCUGGCGGCCAGCUCCUUCUUGCAGGGCGGCGGGUAGGCGCCGCCGUAGAGCAGCAACAGAGGAUUGAGCAUCA
# B2: chr1:10024197:10024198:-_ENSMUSG00000025917_ENSMUST00000027050|mus_mus|motif|central (ssRNA)
# RNA: GGGAGUUCUACAGUCCGACGAUCCAGCAUCUGUGUACUAACAUCAAUCCCGGAGAGCCAGCAGCCAUAACCAGGGUGGCGGUGAUACCAACCGAUUGCAUUCUCAAGGCGGCCAACCUGUUUGGCAUUUUCUAUGUAUGCAGCCAACAGAGGAUUGAGCAUCA
# B3: chr11:87793471:87793472:-_ENSMUSG00000020483_ENSMUST00000020775|mus_mus|mus_mus_mus_hu_False|48_68 (ssRNA)
# RNA: GGGAGUUCUACAGUCCGACGAUCUGGACUUGAAAAUAAAAGAAUAAGCUGGAUCCCCCACCCCCCCACAGUGUCAACCCUACACGAGUUCUGAAUGGGCGACUCAUGAAAAUCAGCAGCUCAAACGGCAAUGACCACCCCACCCAACAGAGGAUUGAGCAUCA
# B4: chr14:66974463:66974464:+_ENSMUSG00000022044_ENSMUST00000074523|mus_hu|mus_mus_mus_hu_False|38_108 (ssRNA)
# RNA: GGGAGUUCUACAGUCCGACGAUCUUGUAGGAUGAUUUAUUCAGGGGAUCGGCCAGGAAGCAGGAGCAGAACAAGGACACCAGCGGGAGCUCCUUCAUCUUCUCCUUGUAGGCAGCAAGGGUCAUGUUUCUGGGAUCUGGUGGCCAACAGAGGAUUGAGCAUCA
# B5: chr1:183139419:183139420:-_ENSMUSG00000038733_ENSMUST00000162963|mus_hu|FALSE|FALSE (ssRNA)
# RNA: GGGAGUUCUACAGUCCGACGAUCUUAUCCCAGUCUCCUUCCAUGACAUGAUUUCGGAAUUUGGUAGCAGAAGGAUGUUCUAAACGACAUCCUGACUCUUGCAUGAGGAGAUCAACAGUCUGGUUGAGCCCUAAGCCAUUCAAGCAACAGAGGAUUGAGCAUCA
# B6: chr4:25749455:25749456:-_ENSG00000091490_ENST00000264868|hu_hu|hu_hu_hu_mus_False|8_28 (ssRNA)
# RNA: GGGAGUUCUACAGUCCGACGAUCGCACUAUGACCUCUAGAAAAAUCCACAGGGGGAAAAAAUGUAAACCAAUGUACAAUGUUAUCGCCUUCCCUGUGUGUGGAGUGACAAACAAUUGGCUCCUUCUUGCCUUAUAAUUUGGGACAACAGAGGAUUGAGCAUCA
# B7: 165213534_165213654_165_5pUTR_ENSMUSG00000017667_ENSMUST00000103084|mouse|control|control (ssRNA)
# RNA: GGGAGUUCUACAGUCCGACGAUCCGCCCGGAGGCCUGCAGCCCCGGGGGCGCCCGCUAGCCUCGCCCGGCCCCUGGACACGCGCAAGCCUCCGCGGGCCCCAGGAAGGCGCUGGUUCUUCUGAUCCUGCCCCGGAGUCGCCACCAACAGAGGAUUGAGCAUCA
# B8: chr15:77794528:77794529:-_ENSMUSG00000016554_ENSMUST00000100484|mus_hu|FALSE|FALSE (ssRNA)
# RNA: GGGAGUUCUACAGUCCGACGAUCGGUGGUGACAGUGUGGAAGAUGCGCUUGAUGCUCCGCAGUGGCUUCUCACUCCUCGUGGUGAUGCGGUCAAAGGCUUUGUCGUAGUAUUCUAGGGCCCCACAACACUCAAUGUCCUGUGGCAACAGAGGAUUGAGCAUCA
# B9: chr11:30352807:30352808:+_ENSG00000152219_ENST00000282032|hu_hu|motif|central (ssRNA)
# RNA: GGGAGUUCUACAGUCCGACGAUCCUUCCAACCAGGUACAAGCUGUCUUCCAAAUUUAGCACUCAGAAAAGUGGCAUCAUCGGAGUCAAUUACAUGCAAAUUUUUUUUGGCUAAUUUCUUGUGUAUGUUAAAUGGGUCACAACACAACAGAGGAUUGAGCAUCA
# B10: chr1:145598734:145598735:-_ENSMUSG00000018199_ENSMUST00000159879|mus_mus|FALSE|FALSE (ssRNA)
# RNA: GGGAGUUCUACAGUCCGACGAUCUGGUCUGAUAUUUUUAUUGCAAGAGUCUCAAGGUUUUAAUACUAUCUUCAAUUCUCUAAAUGACUUUGCUCAUAGGUUUGAACCAAAACAUUUGCCUUUUGCCUCAAAAAUUUCCCUUAACAACAGAGGAUUGAGCAUCA
# B11: chr8:104447970:104447971:+_ENSG00000164934_ENST00000297579|hu_hu|hu_hu_hu_mus_False|98_108 (ssRNA)
# RNA: GGGAGUUCUACAGUCCGACGAUCAUAUACCUCCCUGCUUCGACUUUUGUCCACAGGAAAGAUUCUAAUAGACUUAUCAAAGCUGGCAGACACAAAUUCCUUCCCAGUGGGAGAGUAGUCCACAUCAAGUACUGCAGACACGUGCAACAGAGGAUUGAGCAUCA
# B12: chr11:77340882:77340883:-_ENSG00000074201_ENST00000525064|hu_hu|motif|central (ssRNA)
# RNA: GGGAGUUCUACAGUCCGACGAUCAACAUACAAAUGCUCUCCUAGACAGUCACUUCGGUCCCUGGAUAAUGCAUGUAAACGGAUGGUGGGGUAUUCCAGUGAGAAUCCUAAUCCAGAGCCAUCUAACCAAGACAGGCGGCUCUCCAACAGAGGAUUGAGCAUCA
# B13: 36855532_36855652_1642_3pUTR_ENSMUSG00000069662_ENSMUST00000092584|mouse|control|control (ssRNA)
# RNA: GGGAGUUCUACAGUCCGACGAUCUAUAUGGGUAUGUCUAUAGAUCUGACAAAGAAAGUUUACACUUUUUUAAUAAAGAUGCAAAGUAUGCAAAAAACAUUAAUACUGAUGCCAAAAAAAAAAAAAAAAAGUAAAAGUAAAGAACAACAGAGGAUUGAGCAUCA
# B14: 75685298_75688095_504_CDS_ENSMUSG00000020230_ENSMUST00000020452|mouse|control|control (ssRNA)
# RNA: GGGAGUUCUACAGUCCGACGAUCGACGCUGUGGUACUUGGUGGUCCGAGGCUGGUCAGCCAACAUUUCCAGGUGAAGUUUCAGAGUUCCAUAGCUGUCGAAGUACUCCUCGUCCUGCCAGGUGUCCUCCGGGUCGUAUUCCUCCAACAGAGGAUUGAGCAUCA
# Molecular target: T1, UNK ZnF1-3 (human, UniProt Q9C0B0 31-174)
# T1 sequence: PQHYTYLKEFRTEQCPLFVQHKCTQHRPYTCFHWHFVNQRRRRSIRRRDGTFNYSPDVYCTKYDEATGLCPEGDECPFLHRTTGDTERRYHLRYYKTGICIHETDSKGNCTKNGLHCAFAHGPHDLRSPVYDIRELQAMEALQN
# Assay: nsRBNS (natural sequence RNA bind-n-seq); RBNS binding buffer (assumed for nsRBNS): 25 mM Tris pH 7.5, 150 mM KCl, 3 mM MgCl2, 0.01% Triton X-100, 500 ug/ml BSA, 20 U/ml SUPERase-In, 4 C; UNK is unkempt and MSI1 is Musashi-1; names of the RNAs are library labels; protein concentration not given here; high values mean tight binding
row,Binder,binding signal [enrichment R]
1,B1,0.502
2,B2,1.53
3,B3,1.63
4,B4,2.39
5,B5,0.562
6,B6,1.03
7,B7,1.47
8,B8,0.83
9,B9,2.07
10,B10,0.75
11,B11,0.926
12,B12,1.42
13,B13,1.04
14,B14,0.823
